Measurements as given in the supplement of paper PMC3724861.
This is one part of the list.

What follows are sequences tested on T1, Caupolican (Caup) homeodomain DNA-binding domain (assay: PBM E-score (8-mer, recovered from the published 9-mer minima) (E-score (dimensionless, -0.5 to 0.5)); Drosophila protein; higher = stronger relative binding preference, active = 0.31 or more).
T1 sequence: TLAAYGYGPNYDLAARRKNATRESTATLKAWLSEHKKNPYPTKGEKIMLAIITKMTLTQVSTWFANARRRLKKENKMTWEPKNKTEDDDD
Procedure, shortened: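 Caup's homeodomain DNA-binding domain (residues 214-303) was made by in vitro transcription and translation and applied at 100 nM to custom-designed protein binding microarrays. Each value is an enrichment score that gives relative binding preference for a short DNA word, with higher meaning stronger. The 8-mer values were recovered from published 9-mer scores, each of which was the minimum of its two constituent 8-mer scores. A cutoff of 0.31 marks candidate sites.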

Sequence	PBM E-score
CAGCTGCG	inactive: -0.195
CATCTCAG	inactive: -0.0232
CATGCAAA	inactive: 0.181
ACGACACC	inactive: 0.178
CCAACCTA	inactive: -0.117
CACCATAG	inactive: 0.0543
CATAACAC	inactive: 0.254
AGATGCGG	inactive: -0.0788
GGCCAAAA	inactive: -0.131
CATCCTAA	inactive: 0.0223
AAATTCAA	inactive: 0.0754
CGAATCCC	inactive: -0.0917
ACACTACT	inactive: 0.163
ACACAAGC	inactive: 0.27
TGACTTAA	inactive: 0.101
TCTTGAAA	inactive: 0.0577
CTAGGCCA	inactive: -0.184
GGTCTTAA	inactive: -0.0262
ACTGCCAG	inactive: -0.125
AACACGTG	active: ≥ 0.351
ATACCCAT	inactive: 0.0992
CTTTGTAC	inactive: 0.229
CAGCCAGG	inactive: -0.171
CCTCTAGC	inactive: -0.113
ACGCCATA	≥ 0.0269

Sequence	PBM E-score
CCGCATGA	inactive: -0.165
AAGCCGCG	inactive: -0.185
CCCCGTCC	inactive: -0.288
GAGAATAC	inactive: 0.117
CATGACAA	inactive: 0.283
AGCAAGTA	≥ 0.176
ACCTGATG	inactive: -0.0468
AATGGACC	inactive: 0.00274
ATAGTATC	inactive: 0.141
GGCCGCTA	inactive: -0.26
ACAACCCG	inactive: 0.158
AAAACGCA	inactive: 0.00702
ACAGAATG	inactive: 0.13
ACATTTGC	inactive: 0.211
AAAGCCAG	inactive: -0.121
AATTCGGG	inactive: -0.0064
AGGGTTAA	inactive: -0.0478
CTGAGGAA	inactive: -0.138
GGTCTTGA	inactive: -0.00219
CTGCTATC	inactive: -0.0137
AATCAGTG	inactive: 0.0927
AGCAAAAC	inactive: 0.0891
AATGATGC	inactive: 0.0782
AGCGGATC	inactive: -0.0887
AGTTTGGG	inactive: -0.0668

Sequence	PBM E-score
ATTGACGG	inactive: -0.0874
CGGTAGAA	inactive: -0.134
CGGATTGA	inactive: 0.00308
AACGTGAC	inactive: 0.0599
GATCAGCC	inactive: -0.0818
TGCAATAA	inactive: 0.139
CCGTTAAG	inactive: -0.0392
AAATTATG	inactive: 0.119
CATGTCCC	active: 0.33
CGCATCTA	≥ 0.0538
CGACACCC	inactive: -0.022
ATTCTGTA	inactive: 0.149
ACCCGCTA	inactive: -0.0497
GAGGTACC	inactive: -0.137
AAGTGGTC	inactive: -0.0451
CTGCCATC	inactive: -0.0451
ACCTGGGA	≥ 0.00868
CAGTTTAA	inactive: 0.0934
CTGACATC	inactive: 0.28
ATTTCAGC	inactive: -0.057
ATACTTAA	inactive: 0.151
TAATTCGA	≥ 0.113
AATGCAAC	inactive: 0.113
CTTTTGGC	inactive: -0.151
TACGAGGA	inactive: 0.0493

Sequence	PBM E-score
AATACTTA	inactive: 0.0759
GTAAGCAA	inactive: 0.105
ACATTAGT	≥ 0.271
CCGCAGTA	inactive: -0.0913
AGGTTACG	inactive: -0.0221
CTTGTAAC	active: 0.424
CTCGAGTA	inactive: 0.0555
AGCTTTTC	inactive: -0.00736
AGAGGTCG	inactive: -0.127
CGGAGGTA	inactive: -0.0752
TCCTGCGA	inactive: -0.0251
ATGCTTTA	inactive: 0.126
GGCGCGCA	inactive: -0.127
TCGAAACA	inactive: 0.152
CTTCCAGC	inactive: -0.248
GTCATCGA	inactive: 0.0888
TCCGTCGA	inactive: -0.0302
CTCCTCAG	inactive: -0.117
GCGGGCAC	inactive: -0.144
CAGGGGCC	inactive: -0.276
ACTCGAGA	inactive: 0.00964
GCCCTTAC	inactive: -0.156
ACCACCAG	inactive: -0.0219
CTATAAGA	inactive: 0.0561
ACGGACCA	≥ 0.0071

Sequence	PBM E-score
ACAATGCT	inactive: 0.242
CTGACACC	inactive: 0.122
ACGTCTGA	≥ 0.0544
CAGGAAGA	inactive: -0.0858
ACATAGAG	inactive: 0.116
AGTCCGGC	inactive: -0.144
TAAGGACA	inactive: 0.144
GCACTTAC	inactive: -0.0194
GAACTGAA	inactive: 0.0405
CGTGCCTC	inactive: -0.188
CTCCTATA	inactive: -0.0635
CCACAATC	inactive: -0.0353
ATCATATA	inactive: 0.186
AATTTACC	inactive: 0.0909
GTGCTAAC	inactive: 0.0208
CGCTGACA	inactive: 0.13
GGCTTGCA	inactive: -0.0355
AGCCGAAA	≥ -0.0104
CTCCCGTA	inactive: -0.181
TGGATTAA	inactive: 0.0568
GAGGTGGC	inactive: -0.247
ACTATAAG	inactive: 0.125
GGTAGAAC	inactive: 0.0897
ACATTGGT	inactive: 0.14
GCCCCCAA	inactive: -0.27

Sequence	PBM E-score
AGCTGTAG	inactive: 0.0249
ATGTGGGG	inactive: -0.141
CGACCGCA	inactive: -0.144
AAGATGAT	≥ 0.12
AATGACTA	inactive: 0.114
GACACGAC	active: 0.347
CCTAGCAA	inactive: 0.0501
TGGTTCAA	inactive: -0.00435
CCTCGCTC	inactive: -0.145
ACGTGACT	inactive: 0.0125
CTAGGAGC	inactive: -0.193
CAATAGCC	inactive: 0.0422
AATCGACT	inactive: 0.0371
GATTCATA	inactive: 0.0911
CAAAGAGG	inactive: -0.0613
CCGCACAA	inactive: -0.0477
AAAGAATT	inactive: 0.0402
ATGCACCG	inactive: -0.0436
GAGTTGCA	inactive: -0.0255
CTCGAATA	inactive: -0.105
CGTCCCAC	inactive: -0.127
AATCGTAG	inactive: 0.128
ACACGCGC	inactive: 0.101
CTAAGGCA	inactive: -0.176
AGATTTAA	inactive: -0.0644

Sequence	PBM E-score
AAGGTAGA	inactive: 0.00307
ATACGTGC	inactive: 0.1
AACTACCC	inactive: 0.0415
CTGCCCAA	inactive: -0.0948
CACAGGTG	inactive: -0.0105
GTTGACAA	inactive: 0.294
CTAGTCAC	inactive: 0.141
CCGGGCTA	inactive: -0.226
GTAAGCAC	inactive: -0.00763
TACAAGAA	active: 0.351
ACTCCCGA	inactive: -0.0588
AACGGTAA	inactive: 0.0102
GAAAGAAA	inactive: -0.0143
CCTGCAAA	inactive: -0.135
CAGTGACC	inactive: -0.134
GCTACTGA	inactive: -0.0208
GTCCAGAC	inactive: -0.0468
AGCTATCA	inactive: -0.00454
GGTCCACC	inactive: -0.12
AGCAACAC	inactive: 0.186
CAGGGTAG	inactive: -0.12
AGTCTACG	inactive: -0.117
CAGACGCA	inactive: -0.105
CATCGATC	inactive: 0.0872
AGATGAAA	inactive: 0.073

Sequence	PBM E-score
CTAGCGAA	inactive: -0.132
GGCGAGCC	inactive: -0.169
CGGTAACG	inactive: -0.0676
CGGCCTAA	inactive: -0.101
CCCCAACA	inactive: 0.0515
GCACAAAC	inactive: 0.0907
CCTGAAGG	inactive: -0.291
CGCCCCGA	inactive: -0.286
AGGTTAAG	inactive: -0.0563
GATGGGAA	inactive: -0.0609
CACTGATA	inactive: 0.129
CCTCAGAA	inactive: -0.0716
CAGGCCTA	inactive: -0.102
AGTGCCGC	inactive: -0.185
ACCTACGA	≥ 0.0502
CCAGTCGC	inactive: -0.153
CCTCTCCC	inactive: -0.192
ATCGATGA	inactive: 0.187
CGTAAGGA	inactive: -0.00588
GTGACGTA	inactive: 0.0283
AGAGTTCG	inactive: -0.048
AGTTCCAG	inactive: -0.0677
AAAGCACC	inactive: -0.149
CGTATGAG	inactive: 0.0161
ATCTGTGA	inactive: 0.00137

Sequence	PBM E-score
CGCTTCCC	inactive: -0.158
AAAATCTG	inactive: 0.0858
TAGTAGCA	≥ 0.105
ATCTCCAG	inactive: -0.0588
GTGGCTCA	inactive: -0.086
CCGCGGCA	inactive: -0.192
AGCTTGAG	inactive: -0.17
CAACCATG	inactive: 0.18
ACAAGAGG	inactive: 0.142
GGTTCCTA	inactive: -0.0269
ACAGTCCA	inactive: 0.0228
CAAGTCAA	inactive: 0.0959
GATGGGCA	inactive: -0.0582
CGTAGTCC	inactive: -0.0839
AAGGTGCA	inactive: -0.031
ATAGGACC	inactive: -0.0892
AATATGGT	inactive: 0.0711
AAACGCCA	inactive: -0.00421
CTTGTGAA	inactive: 0.129
AACGTCAA	inactive: 0.0558
CTCAAGTC	inactive: -0.0127
AACGGGGC	inactive: -0.174
AAGGAAAG	inactive: -0.0839
CCCTTATA	inactive: -0.0258
CATGCTGC	inactive: 0.0174
